# Experimental data taken from paper PMC12820563, “FoxP3 forms a head-to-head dimer in vivo and stabilizes its multimerization on adjacent microsatellites”.
# This is one part of the list.
# Target: T1, MBP-FoxP1dN (Mus musculus, UniProt P58462 326-579)
# T1 sequence: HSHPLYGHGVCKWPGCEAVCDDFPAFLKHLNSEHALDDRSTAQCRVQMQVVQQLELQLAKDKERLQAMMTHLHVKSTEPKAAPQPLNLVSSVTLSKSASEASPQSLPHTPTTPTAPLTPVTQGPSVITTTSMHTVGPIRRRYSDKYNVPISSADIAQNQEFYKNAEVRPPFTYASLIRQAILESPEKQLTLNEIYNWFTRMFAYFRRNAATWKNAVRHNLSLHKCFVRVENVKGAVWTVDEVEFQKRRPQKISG
# Assay: PD-seq (MBP pull-down with sequencing); 20 mM Tris-HCl pH 7.5, 100 mM NaCl, 1.5 mM MgCl2, 0.4 uM protein, 0.1 uM dsDNA library, 30 min, room temperature, amylose pull-down; high values mean tight binding
# Conditions: protein: recombinant; tags: His6-MBP; chain copies: 2; dsDNA, one strand shown
# Procedure, shortened: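 Binding is the reads-per-million enrichment of pull-down relative to input, pooled across replicates. For this, 0.4 µM His6-MBP-tagged mouse FoxP3 or FoxP1 fragment lacking the N-terminus, made in E. coli, was incubated with 0.1 µM Klenow-filled double-stranded degenerate DNA library for 30 min at room temperature in Tris pH 7.5 buffer with NaCl and MgCl2. Complexes bound to amylose resin were washed three times before proteinase K released the DNA for PCR barcoding and Illumina sequencing.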
row,Sequence,binding signal
1,GATGATTGTTCTCCCAGCTGATGAATTGCACCCGTCGAGTAAACAAATTTTCCTAATCTTTCTGTTCAAGCGCCATCTAC,1.1 RPM ratio (pull-down/input)
2,GATGATTGTTCTCCCAGCTGATGAATTGTCAACCTCGAGTAAACAAATTTTCCTAATCTTTCTGTTCAAGCGCCATCTAC,1.24 RPM ratio (pull-down/input)
3,GATGATTGTTCTCCCAGCTGATGAATTCAGGCAATCGAGTAAACAAATTTTCCTAATCTTTCTGTTCAAGCGCCATCTAC,1.08 RPM ratio (pull-down/input)
4,GATGATTGTTCTCCCAGCTGATGAATTCCTCCATTCGAGTAAACAAATTTTCCTAATCTTTCTGTTCAAGCGCCATCTAC,0.893 RPM ratio (pull-down/input)
5,GATGATTGTTCTCCCAGCTGATGAATTGGACGCTTCGAGTAAACAAATTTTCCTAATCTTTCTGTTCAAGCGCCATCTAC,0.912 RPM ratio (pull-down/input)
6,GATGATTGTTCTCCCAGCTGATGAATTAGAGCATTCGAGTAAACAAATTTTCCTAATCTTTCTGTTCAAGCGCCATCTAC,1.14 RPM ratio (pull-down/input)
7,GATGATTGTTCTCCCAGCTGATGAATTGCAATTGTCGAGTAAACAAATTTTCCTAATCTTTCTGTTCAAGCGCCATCTAC,1.56 RPM ratio (pull-down/input)
8,GATGATTGTTCTCCCAGCTGATGAATTTGTTCAGTCGAGTAAACAAATTTTCCTAATCTTTCTGTTCAAGCGCCATCTAC,1.02 RPM ratio (pull-down/input)
9,GATGATTGTTCTCCCAGCTGATGAATTAGTTTGATCGAGTAAACAAATTTTCCTAATCTTTCTGTTCAAGCGCCATCTAC,0.918 RPM ratio (pull-down/input)
10,GATGATTGTTCTCCCAGCTGATGAATTTAGGCTCTCGAGTAAACAAATTTTCCTAATCTTTCTGTTCAAGCGCCATCTAC,0.864 RPM ratio (pull-down/input)
11,GATGATTGTTCTCCCAGCTGATGAATTCGTTTATTCGAGTAAACAAATTTTCCTAATCTTTCTGTTCAAGCGCCATCTAC,1.25 RPM ratio (pull-down/input)
12,GATGATTGTTCTCCCAGCTGATGAATTCGCTTATTCGAGTAAACAAATTTTCCTAATCTTTCTGTTCAAGCGCCATCTAC,0.94 RPM ratio (pull-down/input)
13,GATGATTGTTCTCCCAGCTGATGAATTGTCACAGTCGAGTAAACAAATTTTCCTAATCTTTCTGTTCAAGCGCCATCTAC,1.08 RPM ratio (pull-down/input)
14,GATGATTGTTCTCCCAGCTGATGAATTGGTCTTTTCGAGTAAACAAATTTTCCTAATCTTTCTGTTCAAGCGCCATCTAC,1.08 RPM ratio (pull-down/input)
15,GATGATTGTTCTCCCAGCTGATGAATTTATTTCATCGAGTAAACAAATTTTCCTAATCTTTCTGTTCAAGCGCCATCTAC,1.16 RPM ratio (pull-down/input)
16,GATGATTGTTCTCCCAGCTGATGAATTCAATTAGTCGAGTAAACAAATTTTCCTAATCTTTCTGTTCAAGCGCCATCTAC,0.9 RPM ratio (pull-down/input)
17,GATGATTGTTCTCCCAGCTGATGAATTCAATGGGTCGAGTAAACAAATTTTCCTAATCTTTCTGTTCAAGCGCCATCTAC,0.819 RPM ratio (pull-down/input)
18,GATGATTGTTCTCCCAGCTGATGAATTCTACTGTTCGAGTAAACAAATTTTCCTAATCTTTCTGTTCAAGCGCCATCTAC,0.845 RPM ratio (pull-down/input)
19,GATGATTGTTCTCCCAGCTGATGAATTACTCTTCTCGAGTAAACAAATTTTCCTAATCTTTCTGTTCAAGCGCCATCTAC,1 RPM ratio (pull-down/input)
20,GATGATTGTTCTCCCAGCTGATGAATTGCCTTTGTCGAGTAAACAAATTTTCCTAATCTTTCTGTTCAAGCGCCATCTAC,1.05 RPM ratio (pull-down/input)
21,GATGATTGTTCTCCCAGCTGATGAATTACCGGCTTCGAGTAAACAAATTTTCCTAATCTTTCTGTTCAAGCGCCATCTAC,0.905 RPM ratio (pull-down/input)

row,Sequence,binding signal
1,GATGATTGTTCTCCCAGCTGATGAATTCCCCCTGTCGAGTAAACAAATTTTCCTAATCTTTCTGTTCAAGCGCCATCTAC,0.778 RPM ratio (pull-down/input)
2,GATGATTGTTCTCCCAGCTGATGAATTGGTCCTGTCGAGTAAACAAATTTTCCTAATCTTTCTGTTCAAGCGCCATCTAC,0.842 RPM ratio (pull-down/input)
3,GATGATTGTTCTCCCAGCTGATGAATTCCCTGTATCGAGTAAACAAATTTTCCTAATCTTTCTGTTCAAGCGCCATCTAC,0.931 RPM ratio (pull-down/input)
4,GATGATTGTTCTCCCAGCTGATGAATTTGATCTGTCGAGTAAACAAATTTTCCTAATCTTTCTGTTCAAGCGCCATCTAC,0.827 RPM ratio (pull-down/input)
5,GATGATTGTTCTCCCAGCTGATGAATTTCTACCTTCGAGTAAACAAATTTTCCTAATCTTTCTGTTCAAGCGCCATCTAC,0.845 RPM ratio (pull-down/input)
6,GATGATTGTTCTCCCAGCTGATGAATTGAGCTCCTCGAGTAAACAAATTTTCCTAATCTTTCTGTTCAAGCGCCATCTAC,0.782 RPM ratio (pull-down/input)
7,GATGATTGTTCTCCCAGCTGATGAATTGTTCAGGTCGAGTAAACAAATTTTCCTAATCTTTCTGTTCAAGCGCCATCTAC,0.922 RPM ratio (pull-down/input)
8,GATGATTGTTCTCCCAGCTGATGAATTTTGTAGGTCGAGTAAACAAATTTTCCTAATCTTTCTGTTCAAGCGCCATCTAC,0.919 RPM ratio (pull-down/input)
9,GATGATTGTTCTCCCAGCTGATGAATTCTCCAATTCGAGTAAACAAATTTTCCTAATCTTTCTGTTCAAGCGCCATCTAC,0.957 RPM ratio (pull-down/input)
10,GATGATTGTTCTCCCAGCTGATGAATTTTCAATCTCGAGTAAACAAATTTTCCTAATCTTTCTGTTCAAGCGCCATCTAC,0.823 RPM ratio (pull-down/input)
11,GATGATTGTTCTCCCAGCTGATGAATTGCTTTAGTCGAGTAAACAAATTTTCCTAATCTTTCTGTTCAAGCGCCATCTAC,1.06 RPM ratio (pull-down/input)
12,GATGATTGTTCTCCCAGCTGATGAATTGCCTTTCTCGAGTAAACAAATTTTCCTAATCTTTCTGTTCAAGCGCCATCTAC,1 RPM ratio (pull-down/input)
13,GATGATTGTTCTCCCAGCTGATGAATTGAGGTCCTCGAGTAAACAAATTTTCCTAATCTTTCTGTTCAAGCGCCATCTAC,0.772 RPM ratio (pull-down/input)
14,GATGATTGTTCTCCCAGCTGATGAATTTTGGGCCTCGAGTAAACAAATTTTCCTAATCTTTCTGTTCAAGCGCCATCTAC,0.804 RPM ratio (pull-down/input)
15,GATGATTGTTCTCCCAGCTGATGAATTAATAAAGTCGAGTAAACAAATTTTCCTAATCTTTCTGTTCAAGCGCCATCTAC,1.09 RPM ratio (pull-down/input)
16,GATGATTGTTCTCCCAGCTGATGAATTCCACCGATCGAGTAAACAAATTTTCCTAATCTTTCTGTTCAAGCGCCATCTAC,0.835 RPM ratio (pull-down/input)
17,GATGATTGTTCTCCCAGCTGATGAATTTGACGGGTCGAGTAAACAAATTTTCCTAATCTTTCTGTTCAAGCGCCATCTAC,0.814 RPM ratio (pull-down/input)
18,GATGATTGTTCTCCCAGCTGATGAATTTTTTTCCTCGAGTAAACAAATTTTCCTAATCTTTCTGTTCAAGCGCCATCTAC,0.754 RPM ratio (pull-down/input)
19,GATGATTGTTCTCCCAGCTGATGAATTATCACAATCGAGTAAACAAATTTTCCTAATCTTTCTGTTCAAGCGCCATCTAC,1.44 RPM ratio (pull-down/input)
20,GATGATTGTTCTCCCAGCTGATGAATTTACTACATCGAGTAAACAAATTTTCCTAATCTTTCTGTTCAAGCGCCATCTAC,1.44 RPM ratio (pull-down/input)
21,GATGATTGTTCTCCCAGCTGATGAATTCGACGATTCGAGTAAACAAATTTTCCTAATCTTTCTGTTCAAGCGCCATCTAC,0.836 RPM ratio (pull-down/input)

row,Sequence,binding signal
1,GATGATTGTTCTCCCAGCTGATGAATTAGTGTTTTCGAGTAAACAAATTTTCCTAATCTTTCTGTTCAAGCGCCATCTAC,2.42 RPM ratio (pull-down/input)
2,GATGATTGTTCTCCCAGCTGATGAATTGGCGCCATCGAGTAAACAAATTTTCCTAATCTTTCTGTTCAAGCGCCATCTAC,0.945 RPM ratio (pull-down/input)
3,GATGATTGTTCTCCCAGCTGATGAATTCACGATATCGAGTAAACAAATTTTCCTAATCTTTCTGTTCAAGCGCCATCTAC,1.02 RPM ratio (pull-down/input)
4,GATGATTGTTCTCCCAGCTGATGAATTCGCTGTCTCGAGTAAACAAATTTTCCTAATCTTTCTGTTCAAGCGCCATCTAC,0.815 RPM ratio (pull-down/input)
5,GATGATTGTTCTCCCAGCTGATGAATTACTCAGCTCGAGTAAACAAATTTTCCTAATCTTTCTGTTCAAGCGCCATCTAC,0.942 RPM ratio (pull-down/input)
6,GATGATTGTTCTCCCAGCTGATGAATTAGTGCGGTCGAGTAAACAAATTTTCCTAATCTTTCTGTTCAAGCGCCATCTAC,0.85 RPM ratio (pull-down/input)
7,GATGATTGTTCTCCCAGCTGATGAATTGTGAATCTCGAGTAAACAAATTTTCCTAATCTTTCTGTTCAAGCGCCATCTAC,0.99 RPM ratio (pull-down/input)
8,GATGATTGTTCTCCCAGCTGATGAATTCATTCAATCGAGTAAACAAATTTTCCTAATCTTTCTGTTCAAGCGCCATCTAC,0.933 RPM ratio (pull-down/input)
9,GATGATTGTTCTCCCAGCTGATGAATTTTCGTTCTCGAGTAAACAAATTTTCCTAATCTTTCTGTTCAAGCGCCATCTAC,0.94 RPM ratio (pull-down/input)
10,GATGATTGTTCTCCCAGCTGATGAATTTAAGAGGTCGAGTAAACAAATTTTCCTAATCTTTCTGTTCAAGCGCCATCTAC,0.798 RPM ratio (pull-down/input)
11,GATGATTGTTCTCCCAGCTGATGAATTCATATAATCGAGTAAACAAATTTTCCTAATCTTTCTGTTCAAGCGCCATCTAC,1.16 RPM ratio (pull-down/input)
12,GATGATTGTTCTCCCAGCTGATGAATTCGATGGCTCGAGTAAACAAATTTTCCTAATCTTTCTGTTCAAGCGCCATCTAC,0.84 RPM ratio (pull-down/input)
13,GATGATTGTTCTCCCAGCTGATGAATTCTCAGTATCGAGTAAACAAATTTTCCTAATCTTTCTGTTCAAGCGCCATCTAC,0.923 RPM ratio (pull-down/input)
14,GATGATTGTTCTCCCAGCTGATGAATTATTCTACTCGAGTAAACAAATTTTCCTAATCTTTCTGTTCAAGCGCCATCTAC,0.985 RPM ratio (pull-down/input)
15,GATGATTGTTCTCCCAGCTGATGAATTCCACCGGTCGAGTAAACAAATTTTCCTAATCTTTCTGTTCAAGCGCCATCTAC,0.744 RPM ratio (pull-down/input)
16,GATGATTGTTCTCCCAGCTGATGAATTCATCTGATCGAGTAAACAAATTTTCCTAATCTTTCTGTTCAAGCGCCATCTAC,0.904 RPM ratio (pull-down/input)
17,GATGATTGTTCTCCCAGCTGATGAATTCACTACATCGAGTAAACAAATTTTCCTAATCTTTCTGTTCAAGCGCCATCTAC,0.992 RPM ratio (pull-down/input)
18,GATGATTGTTCTCCCAGCTGATGAATTAAGAGCCTCGAGTAAACAAATTTTCCTAATCTTTCTGTTCAAGCGCCATCTAC,0.924 RPM ratio (pull-down/input)
19,GATGATTGTTCTCCCAGCTGATGAATTAGGAGTGTCGAGTAAACAAATTTTCCTAATCTTTCTGTTCAAGCGCCATCTAC,0.918 RPM ratio (pull-down/input)
20,GATGATTGTTCTCCCAGCTGATGAATTTCTATTATCGAGTAAACAAATTTTCCTAATCTTTCTGTTCAAGCGCCATCTAC,1.48 RPM ratio (pull-down/input)
21,GATGATTGTTCTCCCAGCTGATGAATTTACAGAGTCGAGTAAACAAATTTTCCTAATCTTTCTGTTCAAGCGCCATCTAC,1.12 RPM ratio (pull-down/input)
